Measured values reported in PMC4336329 (PLoS ONE, 2015).
The whole screen tested about 310,000 compounds, of which about 2,200 (0.71%) showed an effect of 50% or more. The effect is printed as a negative number. This is one part of the list.

target: human ether-à-go-go-related gene (hERG) potassium channel (human, UniProt Q12809); test: primary screen, population patch clamp on CHO cells stably expressing hERG
Sequence (Q12809 whole entry, looked up): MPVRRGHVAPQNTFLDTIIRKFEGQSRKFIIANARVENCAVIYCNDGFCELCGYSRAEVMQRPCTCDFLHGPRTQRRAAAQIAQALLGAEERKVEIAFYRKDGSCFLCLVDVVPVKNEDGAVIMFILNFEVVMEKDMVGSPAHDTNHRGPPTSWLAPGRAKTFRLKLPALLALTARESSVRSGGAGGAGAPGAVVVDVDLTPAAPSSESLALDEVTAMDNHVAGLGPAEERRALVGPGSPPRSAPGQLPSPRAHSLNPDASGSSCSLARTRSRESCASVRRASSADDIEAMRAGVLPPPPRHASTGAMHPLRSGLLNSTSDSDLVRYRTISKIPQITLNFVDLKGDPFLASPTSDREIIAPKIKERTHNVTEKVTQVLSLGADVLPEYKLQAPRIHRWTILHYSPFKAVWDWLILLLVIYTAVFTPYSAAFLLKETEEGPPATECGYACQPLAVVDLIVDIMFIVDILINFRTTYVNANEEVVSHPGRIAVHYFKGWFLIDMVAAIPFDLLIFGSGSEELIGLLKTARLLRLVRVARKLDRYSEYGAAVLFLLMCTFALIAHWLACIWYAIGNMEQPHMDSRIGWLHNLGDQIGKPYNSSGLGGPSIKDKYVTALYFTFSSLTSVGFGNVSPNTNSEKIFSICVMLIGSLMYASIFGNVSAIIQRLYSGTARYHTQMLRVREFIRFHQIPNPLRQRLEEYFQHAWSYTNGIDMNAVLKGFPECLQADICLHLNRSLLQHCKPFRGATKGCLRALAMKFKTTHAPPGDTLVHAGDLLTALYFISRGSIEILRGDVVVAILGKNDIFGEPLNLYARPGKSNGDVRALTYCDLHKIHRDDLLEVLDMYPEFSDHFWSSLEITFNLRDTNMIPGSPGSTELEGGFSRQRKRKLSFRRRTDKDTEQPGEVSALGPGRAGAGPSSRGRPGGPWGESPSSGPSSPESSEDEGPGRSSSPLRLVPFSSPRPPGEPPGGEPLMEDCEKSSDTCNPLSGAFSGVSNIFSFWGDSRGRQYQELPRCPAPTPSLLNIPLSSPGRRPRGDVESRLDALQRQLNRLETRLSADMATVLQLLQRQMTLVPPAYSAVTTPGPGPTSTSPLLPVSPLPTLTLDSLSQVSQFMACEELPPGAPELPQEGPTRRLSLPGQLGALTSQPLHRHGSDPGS

| Compound | hERG current change (%, negative = inhibition) at 1uM [%] |
| --- | --- |
| Cc1ccc(C(=O)Nc2cccc(C(F)(F)F)c2)cc1Nc1cncnc1.O=C(O)C(F)(F)F | -12.9 |
| CCOc1cc(C(=S)N2CCCCC2)ccc1OS(=O)(=O)c1ccc(Br)cc1 | 4.26 |
| N#Cc1ccc(CN2CCN(C(=O)c3cc(C4CC4)nn3-c3ccccc3)CC2)cc1 | -5.21 |
| COCCNC(=S)Nc1ccc2[nH]c(=O)[nH]c2c1 | 7.39 |
| O=C(Nc1ccccc1Cl)c1cc2ccccc2o/c1=N\O | 6.22 |
| Cc1cc(C)n(-c2ccc(Oc3ccccc3)c(S(=O)(=O)O)c2)n1 | 12.6 |
| CCCc1ccc2oc(C(=O)N(C)Cc3nccs3)c(C)c2c1 | 6.46 |
| CCOc1ccc(/C=N/NC(=O)Cn2ccnc2C)cc1 | 12.4 |
| COc1ccc(C2C(C#N)=C(N)Oc3cc(C)n(Cc4ccncc4)c(=O)c32)cc1 (centres unmarked) | -8.44 |
| CCOc1ccccc1CNC(=O)c1cn(C)c(=O)c2c1c1ccccc1n2C | 6.45 |
| CCC1(C)NC(=O)N(CC(=O)NCC(=O)Nc2c(C)cc(C)cc2C)C1=O (centres unmarked) | 10 |
| COc1cc(OC)cc(C(=O)Nc2ccn(C)n2)c1 | 15.2 |
| O=c1[nH]cccc1-c1nc2ccccc2n1Cc1ccc(F)cc1 | 1.04 |
| COc1cccc2sc(Nc3nc(-c4cc5ccccc5oc4=O)cs3)nc12 | 10.7 |
| COc1ccc(S(=O)(=O)N(C)CC(=O)NC2CCCC2)cc1Cl | 13.2 |
| Br.O=C(c1ccc(Br)cc1)c1sc(N2CCOCC2)nc1-c1ccccc1 | -5.61 |
| CCOC(=O)C1=C(CC)Nc2ccccc2N=C1NC(=O)Nc1ccccc1OC | 15.6 |
| Cn1cc(CN2CCCC(CNC(=O)c3ccc4c(c3)OCO4)C2)c2ccccc21 (centres unmarked) | -11.7 |
| Cc1ccccc1OCC(=O)NC(=S)Nc1ccccc1N1CCN(S(C)(=O)=O)CC1 | 8.23 |

| Compound | hERG current change (%, negative = inhibition) at 1uM [%] |
| --- | --- |
| Cc1ccc(S(=O)(=O)N2CCN(C(=O)NCc3ccc(F)cc3)CC2)c(C)c1 | 13.9 |
| CC(=O)Nc1nc(C(F)(F)F)cs1 | 12.2 |
| COc1ccc(-c2c(-c3ccc4c(c3)OCO4)noc2C)cn1 | 11.8 |
| CC(C)c1ccc(C2NC(C(=O)O)CS2)cc1 (centres unmarked) | -4.5 |
| CC(=O)c1cccc(NC(=S)Nc2ccc(F)cc2)c1 | 12.1 |
| CCCC12CN(C(=O)c3ccc(OC)cc3)CC(C)(CN(C(=O)c3ccc(OC)cc3)C1)C2=O | 8.7 |
| Cc1nc2ccccc2c(=O)n1/N=C/c1ccc(OC(F)F)cc1 | 10.8 |
| CCn1nc(C)cc1C(=O)NC1CCCc2c1cnn2-c1ccc(C)c(C)c1 (centres unmarked) | 12.1 |
| Nc1c(C(=O)N2CCCCC2)sc2nc3c(cc12)CCCC3 | 7.24 |
| CCOc1ccc(OCCSc2nc(N)cc(=O)[nH]2)cc1 | 6.35 |
| CCOc1ccc(NC(=O)NCc2cccnc2)cc1 | 18.7 |
| CC(C)Cc1cc(C(=O)N2CCC(N3CCC(C(=O)N4CCCC4)CC3)CC2)n[nH]1 | 7.43 |
| CC(C)CCn1nnnc1C(c1ccccc1F)N1CCC(C(N)=O)CC1 (centres unmarked) | 9.2 |
| O=C(N/C(=C\c1ccc(Br)cc1)C(=O)N1CCCC1)c1ccccc1F | -49.5 |
| CCOC(=O)/C(C#N)=C/c1c(N2CCCCCC2)nc2ccccn2c1=O | 16.3 |
| CSc1ccc(S(=O)(=O)NCC(=O)OCC(=O)N2CCC(C)CC2)cc1[N+](=O)[O-] | 8.74 |
| Cc1nc2sc(C(c3ccc(Br)cc3)N3CC(C)OC(C)C3)c(O)n2n1 (centres unmarked) | 5.48 |
| CC(C)CCN(C(=O)CCCSc1nc2ccccc2[nH]1)c1c(N)n(Cc2ccccc2)c(=O)[nH]c1=O | -12.5 |
| CCOc1ccc(S(=O)(=O)N2CCCC(C(=O)NCCN3CCOCC3)C2)cc1Cl (centres unmarked) | -2.37 |

| Compound | hERG current change (%, negative = inhibition) at 1uM [%] |
| --- | --- |
| O=C1NC(=O)/C(=C/c2ccc(-c3cccc([N+](=O)[O-])c3)o2)S1 | 20.4 |
| c1ccc2c(c1)CC/C2=N/Nc1nc2ccccc2[nH]1 | 11.1 |
| Cc1cc(C(=O)CSc2nc3ccccc3c(=O)n2C)c(C)n1Cc1ccc2c(c1)OCO2 | 9.41 |
| COc1ccccc1C(=O)Nc1nnc(S(=O)(=O)N2CCCCCC2)s1 | 11.7 |
| COCCn1c(CN2CCN(C(=O)c3ccco3)CC2)nc2c1c(=O)n(C)c(=O)n2C | -2.52 |
| Cc1cc(C)cc(OCC(=O)OCC(=O)Nc2c(C)n(C)n(-c3ccccc3)c2=O)c1 | 5.78 |
| CN(C)C(=O)c1ccc2c(c1)C1C3CCC(C3)C1C(c1ccccc1)N2 (centres unmarked) | 8.03 |
| O=C(CSc1nc(N2CCOCC2)nc(N2CCOCC2)n1)Nc1ccccc1F | 6.42 |
| COc1ccc(N2CCN(C(=O)C3Cc4ccccc4CN3C(=O)c3ccco3)CC2)cc1 (centres unmarked) | -15.9 |
| CC(C)CN1CCC(=O)N(CCSc2ccccc2)CC1 | -0.191 |
| Nc1ccc2c(c1)C(=O)Cc1ccccc1S2 | 4.28 |
| CC(C)NC(=O)c1onc(CSc2cccc3ccccc23)c1C(=O)O | 24.1 |
| C=CCN1C(=O)C2(OCCO2)c2cc(C)ccc21 | 3.37 |
| CC(NC(=O)CN1CCCC1)c1ccccc1 (centres unmarked) | 16.4 |
| O=C(Cn1cccc1C(=O)c1ccccc1)NCCCc1ccccc1 | 7.87 |
| O=C(CCc1ccccc1)NNC(=O)c1cc(Cl)ccc1O | 12.2 |
| Cc1ccc2[nH]c(=O)c(CN(CCCN(C)C)C(=O)Nc3ccc(F)cc3)cc2c1 | -37 |
| CCc1c(O)nc(SCC(=O)NCc2ccco2)[nH]c1=O | -0.989 |
